# Measured values: the supplement of paper PMC3334620
# The full ranking holds about 33,000 sequences; the median of “E-score (-0.5 to 0.5)” is about -0.021, and the highest 2% start at about 0.32. Some of the results follow.
# Target: T1, Zap1 (UniProt P47043)
# T1 sequence: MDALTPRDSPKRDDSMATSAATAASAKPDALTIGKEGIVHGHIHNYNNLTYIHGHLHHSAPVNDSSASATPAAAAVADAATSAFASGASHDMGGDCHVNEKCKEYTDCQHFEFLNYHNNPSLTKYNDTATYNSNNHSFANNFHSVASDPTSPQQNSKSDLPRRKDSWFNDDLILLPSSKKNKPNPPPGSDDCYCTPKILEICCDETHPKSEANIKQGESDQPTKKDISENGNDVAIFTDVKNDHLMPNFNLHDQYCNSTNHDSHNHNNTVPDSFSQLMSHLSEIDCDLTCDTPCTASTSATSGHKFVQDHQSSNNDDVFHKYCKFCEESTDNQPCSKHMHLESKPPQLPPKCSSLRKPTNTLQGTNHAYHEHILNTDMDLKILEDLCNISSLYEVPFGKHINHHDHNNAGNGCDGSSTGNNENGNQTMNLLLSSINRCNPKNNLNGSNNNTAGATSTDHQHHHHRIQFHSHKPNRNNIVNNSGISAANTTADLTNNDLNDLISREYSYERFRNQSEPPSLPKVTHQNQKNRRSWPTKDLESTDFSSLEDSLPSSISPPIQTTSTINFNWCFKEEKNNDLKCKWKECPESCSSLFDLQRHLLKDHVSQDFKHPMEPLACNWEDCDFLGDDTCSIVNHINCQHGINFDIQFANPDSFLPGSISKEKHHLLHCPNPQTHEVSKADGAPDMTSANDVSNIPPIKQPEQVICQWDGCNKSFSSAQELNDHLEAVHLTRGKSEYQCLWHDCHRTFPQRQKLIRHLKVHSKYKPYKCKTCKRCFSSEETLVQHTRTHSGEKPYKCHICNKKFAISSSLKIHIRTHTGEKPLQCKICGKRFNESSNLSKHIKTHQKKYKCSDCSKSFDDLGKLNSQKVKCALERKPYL
# Assay: PBM E-score (8-mer binding enrichment) (E-score (-0.5 to 0.5)); higher = stronger / more preferred TF binding; most listed sequences are background and not binding sites
# Details: protein concentration: 200 nM; construct: GST-full length
# Description: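 Universal 'all 10-mer' protein binding microarrays (Agilent AMADID 015681) probed with GST-tagged S. cerevisiae TFs (full-length or DBD) made by in vitro transcription/translation (PURExpress), about 100-200 nM. Bound TF was detected with fluorescent anti-GST. Each ungapped 8-mer (which stands for itself and its reverse complement) is scored by the PBM enrichment score (E-score), a modified Wilcoxon-Mann-Whitney statistic from -0.5 to +0.5, computed with the Universal PBM Analysis Suite. Scale: above 0.35 generally sequence-specific binding.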
row,Sequence,PBM E-score
1,CCACTCGC,-0.057
2,TACGCACA,0.0253
3,CAGTCGGG,0.0489
4,AGGATGCA,-0.0265
5,AGTAATCA,0.0871
6,ATCCGTTA,0.079
7,CAAAGACA,0.0257
8,ACGTCCTA,-0.113
9,GAACGCAC,0.0998
10,TATTCGGA,0.139
11,GAACCGGA,0.0894
12,TGGGCGAA,-0.122
13,CGACCGAC,-0.167
14,ACAAATTG,0.0624
15,CCTGGTTA,0.306
16,ATATCCGG,0.148
17,TCTCAGCA,-0.0415
18,GCTATCAC,-0.182
19,GTACGCGA,-0.129
20,TGGCCACA,0.158
21,CTCCAGTC,-0.196
22,CGGAAACG,-0.111
23,AGTGAGGG,-0.112
24,ACCTTTTG,0.364
25,ACGGCATA,0.0795

row,Sequence,PBM E-score
1,ATCCACTC,0.0285
2,TCGAGCCA,-0.288
3,AACAGTTG,-0.0751
4,ACCCGCCT,-0.102
5,ATTAGCGC,-0.112
6,AAACGTAG,-0.0378
7,AAGGACTC,-0.173
8,AAGGAGAG,-0.169
9,GCAATTAA,0.18
10,ATGTTCGG,-0.00942
11,ACGTGATC,-0.0816
12,CAAACATA,0.0295
13,CTATACTA,0.0278
14,AGACCAAA,0.167
15,AGGTGAAC,0.00449
16,GATGTGGA,-0.0924
17,GAATCCGA,-0.17
18,ACCTAACT,0.206
19,CTTCGTAC,-0.0954
20,ATCATTCC,0.00628
21,CCTCAACG,-0.0206
22,GACCCCCA,-0.198
23,CTACAAAC,0.0847
24,AATCTCGC,-0.0495
25,CAGCATTA,-0.1

row,Sequence,PBM E-score
1,AAGCACAA,0.154
2,CTAGCCAG,-0.127
3,GGCTATAC,-0.135
4,AACTTTTG,0.202
5,ACCATTAT,0.282
6,CGCGTCGC,-0.204
7,AAGGTAAA,0.187
8,TGACATAA,0.0975
9,AACAATCT,-0.0319
10,TATTAACA,0.166
11,AGAAGTGG,-0.243
12,CACGATGG,-0.245
13,AGTCGGTG,-0.199
14,GCACCTAA,0.0772
15,AATGCGAG,0.119
16,ACGCGAAT,-0.00753
17,GGACTAGA,-0.0749
18,ACATGTAT,-0.00295
19,CGCAAGCA,0.014
20,CGCCCTCA,-0.099
21,ATGAAGGC,-0.0524
22,CTTAACCA,0.376
23,AGATGACC,0.283
24,TAAACGAA,0.109
25,ACCGCAGG,0.197

row,Sequence,PBM E-score
1,AACTTCTT,0.0979
2,CATGTGAC,0.0821
3,AACATAGA,0.0203
4,CCATATCC,0.00402
5,AGGGCGAT,-0.276
6,GCCTTCGC,-0.189
7,CGTGCGAA,-0.0433
8,ACCCAAAA,0.345
9,GGTACGTA,0.0757
10,CAAGGCAA,-0.156
11,TATATACA,0.163
12,ACCCGGCG,0.0443
13,AGCAGACT,-0.121
14,CAGACTGA,-0.165
15,CTATTTCC,0.0187
16,CACACCCC,-0.0271
17,ACATACGT,-0.164
18,ATAGGTCA,0.301
19,AGGGGGTG,-0.204
20,CGCCTGAA,-0.0343
21,ACAATGAC,0.0347
22,GAATTTAC,0.00277
23,ACAGGCTG,-0.383
24,ACGGGAAA,-0.0137
25,GACAAGGC,-0.317

row,Sequence,PBM E-score
1,AATAACTG,0.14
2,GCTCGAGC,-0.169
3,AATCGGAC,-0.1
4,CCACTGTA,0.173
5,GGCGTGAA,-0.164
6,ACTGAGCG,-0.147
7,AAGTCCAC,-0.026
8,GCGTATCA,0.0484
9,CAGCGGCA,-0.199
10,ACCAGTGA,0.085
11,GAATTGAA,-0.0182
12,CTAGCCTC,-0.132
13,CGACTTGA,-0.157
14,TGACAGCA,0.0488
15,CACACTAG,-0.11
16,ACGACGTG,-0.233
17,ACGAATGA,0.0909
18,GGCTACAA,0.0863
19,GTTCAAGA,-0.0423
20,ATCGGAAA,0.0434
21,GCCTACCC,-0.0197
22,CCGCCGTC,-0.143
23,GCCCTACC,0.0168
24,ATGGAGCA,0.00134
25,AACTCCTC,-0.295

row,Sequence,PBM E-score
1,GCGGCATA,-0.0646
2,TAATGAAA,0.215
3,TACTTACA,0.0955
4,AGGACATC,0.0966
5,CAGGCGAG,-0.225
6,CGCGCAGA,0.0131
7,ATGGTGGG,-0.147
8,GTGACAAA,0.0704
9,GGACCCGA,0.0568
10,TAAATACA,0.0515
11,TCGTGAAA,-0.0389
12,AACTCTCG,-0.0525
13,GGACTTTA,-0.099
14,TGTGCTAA,0.0634
15,AACCTTAG,0.324
16,AGTATGCG,-0.12
17,CCCCGCCA,0.116
18,AGGCGTCG,-0.146
19,CAGTTATG,0.0774
20,AGACTTAT,-0.107
21,GCACCCGA,0.314
22,AACGTGCT,-0.289
23,AAATAATA,0.0675
24,ACCAACGG,-0.0577
25,AGCGGTTG,0.216

row,Sequence,PBM E-score
1,CGGCAGAC,-0.235
2,AGCAGGGG,-0.0612
3,ATGGTGCC,-0.22
4,CTGTGCTC,-0.113
5,GAACTCAA,0.116
6,AGCGGCTG,-0.217
7,GAAAGGGA,-0.107
8,GCACTAAC,-0.166
9,AATTTTGT,0.101
10,AGCACGAC,-0.0783
11,ATCCTGGC,-0.0606
12,AATTCAGC,-0.109
13,CACAGTCC,-0.0387
14,GCCGCAGC,-0.242
15,ACCTCATG,0.226
16,GGAGAATA,-0.0248
17,CGTGCGGC,-0.0871
18,CAGAAGCG,-0.0447
19,GTTTTAAA,0.175
20,GCGGGTGA,0.0991
21,GTAATTAC,0.209
22,GTGTCCAA,0.0157
